Results as given in the RNAGym collection of RNA variant scans (doi:10.7554/elife.90254).
Read counts are not given, so values of variants with three or more changes are uncertain.

B1: LINE1-mini (parent)
chain: GGCAGAGCUCAACACAGCGUGGCAAAGUGGCUGUGGCUAGACUGCC

Variants of: B1
Assay: self-cleavage, relative activity (ratio to wild type); higher = more cleavage; in vitro, sequencing; the parent is a self-cleaving ribozyme

Variant	self-cleavage
G17U G19U G21U A24U A26U G40A C46U	0.03
G5U G21C G29A G33U	0.06
C13G A16C G17A G29U C45A	0.04
A12C U20C A24U G35A	0.12
A4C U20C G21U	0.02
G7A C10A A16U U38C	0.02
C15U G17C A41C	0.01
G2U A16C G29A G35C	0.1
C10G A11C G22C	0.02
C10U A16G C37G A41C	0
C18G U20A G30C G33C	0.05
C13A C31U U34C G36C	0.1
C8A A14C A26G C31U	0.04
G1A G2U A12U C23A A25U G30C C42A	0.01
C15U G29U G44U	0.14
C18A A24G G29C	1.26
C3G A24U G30U C46A	0.1
A11G G36A A39G G44A	0.01
A4U A11G C13A	0.01
C10U A16G A26G C37A	0.05
C10A G21A U38A C46A	0.13

Variant	self-cleavage
A12G C23G C31U G35A C45U	0.01
C10A C37G U43C	0
G27C U28A U34C G40C	0.05
A6G A12G A24C G36U C37A G44A	0.02
A4G G7C C8G C10U U28G C42G	0.01
G17U G19C A24U C31G	0.16
C3U A6G A11U C15G	0.01
G5C C18A G27A	0.04
G1C G5U A39G	0
G17U G19U G27C G44U	0.16
G7U U32G C45G	0.13
G2C G19C C37U	0.07
A4U G5C G17U G30U G40A	0.04
C10A A12C C13U A16U C31G A41C	0.01
A11C C31G U38A G40A	0
G2A G19A G36A	0.46
A12G U34G U38A	0.02
C10U C13U A14U C46A	0.11
G2A C15U C23U G33U C37A U38A	0.2
G5U C8U C31G U32A	0.06
A11C C31U G44U	0.01

Variant	self-cleavage
U20A A25C A26U U28C U32A C37G C42G	0.08
C10A G36U A39C	0.01
G5A C10A C13U C18U U34C G44U	0.1
C3A C10A C18U A26C G40C	0.01
G5C G19U U20G G27C	0.03
C18U C23U A26G G30U	0.15
A12U U28G G29A G33C	0.02
C3A C8U A14C A16C C46U	0.19
G2A G33U G36A	0.1
A26U G33C G44C	0.03
G17U G21U G44U	0.03
C13U G17U C23U G30C U38C A39G	0.16
C15U U20A A25C G35C	0.09
G22C G35U C46A	0.04
G19A G22U G35U	0.1
U20A C42U C45G	0.03
G5U C8U A12G C13G G33U G36A A39C	0.03
A6G U38C C42G	0.33
C3U A16C G17U G36A G44C	0
C10U G33A A41C	0.03
A14C C15A G21C G33A	0.01

Variant	self-cleavage
U28C U34A G35U	0.03
G5C U28G G30A U32G	0.07
C8A C10G A26G	0
C13G G27C U43C	0.06
G1A C18A A25G G36U	0.03
C10G A26U C42U	0.01
C13A C15U A24U U38A	0.03
G5C C10U G27A C42G U43C	0
G5U U9C G21C G44A	0.05
A6G G7U A14G A25U U28C C37U	0.06
A6G C10G U38C	0.01
C3A G17A C31G	0.07
A4C G33U U34G	0.03
G7U C8G U9A G30U C31U	0.18
G22C A26U C37U A39G	0.51
A6G A14G C31U	0.07
C15U A16U A26U	0.07
A25G A39G C45U	0.01
C8A U20G G40U	0.26
A6U U9A G19U G36U C46A	0.09
